# Results: PubChem BioAssay AID1508624 (National Center for Advancing Translational Sciences (NCATS), 2021)
# The whole screen tested about 48,000 compounds, of which about 120 (0.25%) were called active. Roughly 4% stayed inconclusive and do not appear here. Calls follow the shape of the dose curve; as a rule, active = well fitted activation curve with a large enough effect; inconclusive = small, poorly fitted or top-dose-only effect, or another doubt; inactive = no such curve, though single readings can be large or run the other way. The entries are a selection whose mix differs from that of the whole data set. Where no call is shown, the source filed none.
# Assay: Primary qHTS for Identification of Small Molecule Activators of Huntingtin-Antisense Promoter Activity; also: nearly all actives have a fitted effect of over 55% in size
# Conditions: HEK293 HTT-AS promoter firefly luciferase reporter, 24 h; activity change, positive = activation: at 57.5 µM (top of the series), percent change from vehicle, -100% = no light
# How it was run: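 HEK293 Fluc reporter, 2,500 cells/well, 24 h pre-culture; cpds up to 57.5 uM final, 24 h 37 degrees C; Dual-Glo, 10 min RT; normalized vehicle = 0%, zero RLU = -100%.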
# Potency is read from the fitted curve at half-maximal effect.
Compound,"activity change, positive = activation",Potency
COc1ccccc1C(=O)N(c1ccc(C)cc1)S(=O)(=O)c1ccc(Cl)cc1,-27.3%,–
Cc1nc2cccnc2n1C1CCN(S(C)(=O)=O)CC1,-7.61%,–
CN(CCCNC(=O)c1cc2c(Cl)nc3ccccc3c2s1)Cc1ccccc1,inactive: -23.2%,–
COc1ccc(Br)c(C(=O)Nc2cc3c(cc2N2CCOCC2)n(C)c(=O)n3C)c1,2.69%,–
CC(=O)c1cccc(NC(=O)Cn2c(-c3cncs3)nc3ccccc32)c1,-19.9%,–
CCOC(=O)c1cccc(NC(=O)CC2C(=O)N(c3ccccc3)C(=O)N2Cc2ccco2)c1 (stereo not given),-15.3%,–
CC(C)CCSc1nc2c(c(=O)n(C)c(=O)n2C)n1Cc1ccccc1Cl,18.1%,–
COc1ccc(-c2cc(C(=O)Nc3ccc(C#N)cc3)no2)cc1,-14.2%,–
Oc1cccc(C(Nc2ccccn2)c2ccc3cccnc3c2O)c1Cl (stereo not given),-1.78%,–
CCOC(=O)Cc1ccc(NC(=O)n2ncc3c(C)cccc32)cc1,-64.7%,–
CC(=O)Nc1ccc(S(=O)(=O)Nc2cccc(-c3ccc(N4CCC(C)CC4)nn3)c2)cc1,31.5%,–
Cc1nn(CC(=O)NCCc2ccc(Cl)cc2)c(=O)c2cc3cc(F)ccc3n12,-3.86%,–
Cc1cccc(C(=O)Nc2ccc(-c3nc4ccccc4s3)cc2Cl)c1,inactive: 13.8%,–
CC1CCCCN1Cc1c(O)ccc2c(=O)c(-c3cccc(Cl)c3)c(C(F)(F)F)oc12 (stereo not given),-9.1%,–
CC(=O)c1c(C)oc2ccc(N(C(=O)Oc3ccccc3)S(=O)(=O)c3ccc(Br)cc3)cc12,-17.1%,–
CCCCc1ccc(NC(=O)Cn2cnc3c2c(=O)n(C)c(=O)n3C)cc1,-10.4%,–
COc1cccc(-c2cc(C(=O)Nc3cccnc3Cl)no2)c1,14.7%,–
CC1Cc2cc(S(=O)(=O)CCC(=O)Nc3ccc(OC(F)(F)F)cc3)ccc2N1C(=O)C1CC1 (stereo not given),-24.9%,–
COc1ccc(C2c3cc(OC)c(OC)cc3CC(=O)N2c2cccc(C#N)c2)cc1 (stereo not given),-6.3%,–
Cc1ccc(Cc2nc3ccccc3nc2SCC(=O)N2CCN(c3ccccc3F)CC2)cc1,-13.2%,–

Compound,"activity change, positive = activation",Potency
Cc1ccccc1NC(=O)CCc1c(C)nn(-c2ccc(N3CCCCC3)nn2)c1C,18.6%,–
Cc1cc2nn(-c3ccc(F)cc3)nc2cc1NC(=O)c1ccc(OC(C)C)cc1,inactive: -1.48%,–
CCc1ccc(CNC(=O)CCc2c(C)nn(-c3ccc(N4CCCCC4)nn3)c2C)cc1,-23.7%,–
Cc1ccc(CNC(=O)CCS(=O)(=O)c2ccc3c(c2)CC(C)N3C(=O)C2CC2)cc1 (stereo not given),-10.6%,–
Cc1ccc(CNC(=O)C2CCN(S(=O)(=O)Cc3ccccc3)CC2)cc1,-2.98%,–
O=c1oc2ccccc2n1CCCOc1ccccc1Cl,–,active: 7.94 µM
COc1cc(NC(=O)c2cc3c(=O)n(Cc4ccco4)ccc3nc2C)cc(OC)c1OC,-19.3%,–
COc1ccc(S(=O)(=O)Nc2cccc(-c3ccc(N4CCCCC4)nn3)c2)cc1F,46.8%,–
O=C(NCc1ccccc1Cl)c1ccc2c(c1)NC(=O)C(CS(=O)(=O)Cc1ccc(Cl)cc1)N2 (stereo not given),-8.34%,–
COc1ccc2c(C)c(CCC(=O)NCc3ccccc3OC)c(=O)oc2c1,3.91%,–
CC(C)(C)C1CCc2c(sc(NC(=O)c3noc4c3CCCC4)c2C#N)C1 (stereo not given),-5.09%,–
O=c1c2oc3ccccc3c2n(Cc2ccccc2)c(=O)n1Cc1ccco1,inactive: -15.5%,–
CCOC(=O)c1c(N)n(-c2cc(C)cc(C)c2)c2nc3ccccc3nc12,-1.03%,–
Cc1ccc(-c2ccc(CCC(=O)O)n2-c2cccc(C)c2C)cc1,-13.8%,–
Cc1ccc(C(=O)N2CCN(Cc3cc(=O)n4nc(-c5ccccc5)sc4n3)CC2)cc1,0.529%,–
CCc1nn2c(=O)c(S(=O)(=O)Nc3ccc(C)c(C)c3)c(C)nc2s1,-31.9%,–
COc1ccc(CNC(=O)Cn2c(-c3ccccc3)cc(C(C)=O)c2C)cc1OC,-23.4%,–
CC(C)(N)C(=O)N[C@H](COCc1ccccc1)C(=O)N1CCC2(CC1)CN(S(C)(=O)=O)c1ccccc12,inactive: -4.33%,–
Cc1cc(NC(=O)c2cc(-c3ccc(Br)cc3)on2)nn1Cc1ccc(Cl)cc1,-14.6%,–
CN1CCN(C(=O)Cn2c(-c3cccs3)cc3ccccc32)CC1,inactive: -11.9%,–

Compound,"activity change, positive = activation",Potency
Cc1nc2ccn(Cc3ccco3)c(=O)c2cc1C(=O)Nc1ccc(F)cc1,-22.2%,–
COc1ccc(CNC(=O)CCc2c(C)c3ccc(OC)c(C)c3oc2=O)cc1OC,-8.48%,–
Cc1cc(NC(=O)c2ccccc2F)ccc1-c1nc2ccccc2s1,–,active: 0.891 µM
COc1ccc(S(=O)(=O)N2CCC(N3CCN(Cc4ccccc4)C(=O)C3=O)CC2)cc1,7.88%,–
Cc1nc2ccn(Cc3cccs3)c(=O)c2cc1C(=O)NCc1ccc(Br)cc1,-37.5%,–
CCCc1cc(=O)n2c(C(=O)Nc3ccc(OCC)cc3)c(C(=O)Nc3ccc(C)cc3)sc2n1,-7.45%,–
COc1ccc(C)cc1NC(=O)CCc1c(C)nn(-c2ccc(N3CCCCC3)nn2)c1C,16.5%,–
CC1CCN(c2nn3c(=O)c(C(=O)NCCc4ccccc4)cnc3s2)CC1,7.72%,–
Cc1ccc(C2Nc3cc(C)c(C)cc3-n3c(-c4ccccc4)c4c(=O)n(C)c(=O)n(C)c4c32)o1 (stereo not given),12.3%,–
Cc1nc2scc(C)n2c(=O)c1S(=O)(=O)Nc1ccc(N2CCN(S(C)(=O)=O)CC2)cc1,-39.2%,–
CCOC(=O)c1cccc(NC(=O)CC2C(=O)N(c3ccc(C)cc3)C(=O)N2Cc2cccc(OC)c2)c1 (stereo not given),-22.5%,–
C[C@H](NC(=O)C(=O)Nc1ccccc1C(C)(C)C)C(=O)N[C@@H](CC(=O)O)C(=O)COc1c(F)c(F)cc(F)c1F,inactive: -30.8%,–
CCOc1ccc(NC(=O)c2sc3ccccc3c2Cl)cc1,69.3%,–
COc1ccc(-c2nc(SCC(=O)c3ccc(Br)cc3)n[nH]2)cc1,inactive: 9.16%,–
COc1cccc(-c2cc(C(=O)N3CCN(c4ccccc4OC)CC3)no2)c1,-3.69%,–
CCOc1ccccc1NC(=O)CC(c1ccc(F)cc1)N1Cc2ccccc2C1=O (stereo not given),-14.1%,–
COc1ccc(CNC(=O)CCc2c(C)nn(-c3ccc(N4CCCCC4)nn3)c2C)cc1,-15.7%,–
CCN(CC)CCCNC(=O)c1cc(-c2ccc(OC)c(OC)c2)on1,-3.11%,–
COc1cc2c(cc1OC)C(c1ccc(Cl)cc1)N(c1ccc(C)c(F)c1)C(=O)C2 (stereo not given),-33.2%,–
CC(=O)c1c(C)oc2c1cc(NS(=O)(=O)c1ccc(Br)cc1)c1ccccc12,inactive: -39.3%,–
